# Reference: PubChem BioAssay AID1508642 (National Center for Advancing Translational Sciences (NCATS), 2021)
# Out of some 43,000 compounds screened, about 200 (0.47%) were called active. Not shown: some 12% with an inconclusive outcome. The call rests on the fitted dose curve; in most records, active means well fitted cell-killing curve with a large enough effect; inconclusive means small, poorly fitted or top-dose-only effect, or effect the other way; inactive means flat fitted curve, though single readings scatter. The list shows a part of the results.
# Test: Cell viability qHTS assay in S16 Pmp22-F2sN cells; further: nearly all actives have a fitted effect of over 65% in size
# Conditions: S16 Pmp22-F2sN Schwann cells (luciferase reporters placed in the Pmp22 gene) viability, CellTiter-Glo, 24 h; series mostly up to 57.5 µM; activity change, negative = cytotoxicity: at the top concentration
# How it was run: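 Seed 500-1,000 S16 Pmp22-F2sN cells per well in phenol-red-free DMEM with 10% heat-inactivated FBS; pin-add 23 nL compound; incubate 24 h at 37C; add CellTiter-Glo, wait 15 min protected from light; read luminescence.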
# On the % scale 0 is the no-effect control and ±100 the full control effect.
row,Compound,"activity change, negative = cytotoxicity"
1,Cc1ccc2oc(-c3cc(NC(=O)c4ccco4)ccc3Cl)nc2c1,inactive: 21.8%
2,O=C(CSCc1nc2cccnc2n1C1CCCCC1)NCc1cccc(Cl)c1,inactive: -4.71%
3,COc1ccc(-n2nc(C(=O)N3CCN(c4cccc(C)c4C)CC3)c3c4ccccc4n(C)c3c2=O)cc1,inactive: 11.7%
4,O=C(Nc1nc2nc(-c3ccccc3)cc(=O)n2[nH]1)c1ccc(Cl)cc1,inactive: -1.46%
5,CCC(C)OC(=O)/C(C#N)=C\c1ccc(-c2ccccc2Cl)o1 (stereo not drawn),inactive: -0.238%
6,CCN(CC)CCNC(=O)c1nn(C)c2c1CS(=O)(=O)c1ccccc1-2,inactive: 3.88%
7,CCC(=O)N1c2ccccc2CC1C(=O)NCCc1ccc(C)cc1 (stereo not drawn),inactive: 10.1%
8,Cc1ccc(CNC(=O)c2nn(C)c3c2CS(=O)(=O)c2ccccc2-3)cc1,inactive: -5.26%
9,Cc1cn(C)c(CC(=O)NCc2ccccc2Cl)c1C(=O)O,inactive: 1.96%
10,O=C(Cn1c(=O)n(CC2CCCO2)c(=O)c2ccccc21)Nc1cccc(Cl)c1 (stereo not drawn),inactive: 2.73%
11,COc1cc(OC)c(Nc2nc3ccccc3nc2-n2nc(C)cc2C)cc1Cl,inactive: 1.45%
12,CCOC(=O)c1ccccc1NC(=O)N1CCC(N2CCN(Cc3ccccc3)C(=O)C2=O)CC1,inactive: 16.1%
13,CCS(=O)(=O)N1CCc2cc(C(=O)NCc3ccccc3)ccc21,inactive: 6.35%
14,Cc1ccc(-c2nc3nc(C)cc(Nc4ccccc4O)n3n2)cc1,inactive: 6.11%
15,O=C(NCCOCCn1c(=O)oc2ccccc21)Nc1ccc(Cl)cc1,inactive: -26.2%
16,CCOc1ccc(CNC(=O)c2ccc3c(c2)c(C)c(C)n3Cc2ccc(Cl)cc2)cc1,inactive: -10.4%
17,CN(C)S(=O)(=O)n1cc(/C=C(\NC(=O)c2ccccc2)C(=O)NCCCn2ccnc2)c2ccccc21,inactive: 5.48%
18,CCOC(=O)N1CCc2c(sc3c2c(=O)n(-c2ccc(CC)cc2)c(=O)n3CC(=O)Nc2ccc(C)cc2)C1,inactive: 1.73%
19,Cc1ccc2oc(=O)n(CCCOc3ccc(Cl)cc3)c2c1,inactive: -3.36%
20,COc1ccc(N2CC(NC(=O)CCc3ccccc3)CC2=O)cc1OC (stereo not drawn),inactive: 10.8%
21,Cc1cc(C)c(NC(=O)c2cc(S(=O)(=O)N3CCN(c4ccccc4F)CC3)ccc2F)c(C)c1,inactive: -22.4%
22,COc1ccc(C2c3c(n(C)c4ccccc34)C(=O)N2CC(=O)Nc2ccccc2F)cc1 (stereo not drawn),inactive: -9.79%
23,COc1ccc(Cl)cc1NC(=O)CN(c1cccc(C)c1C)S(=O)(=O)c1ccccc1,inactive: -4.38%
24,O=C(CC1N=C2c3ccccc3N=C(SCc3ccccc3F)N2C1=O)NCc1ccc2c(c1)OCO2 (stereo not drawn),inactive: -7.97%

row,Compound,"activity change, negative = cytotoxicity"
1,O=C(NCc1ccc(Cl)cc1)c1cnc2sc(N3CCCC3)nn2c1=O,inactive: 6.94%
2,CCOc1ccc(C(c2c(O)cc(C)n(CCOC)c2=O)N2CCC(C)CC2)cc1 (stereo not drawn),inactive: -3.5%
3,COc1ccc(CCNC(=O)c2ccc3c(c2)N(Cc2cccc(Cl)c2)C(=O)CS3)cc1OC,inactive: -13.3%
4,COc1ccc2c(c1)sc1ncc(C(=O)NCc3cccc(Cl)c3)c(=O)n12,inactive: 3.47%
5,COc1cc(C)ccc1OCCn1c(-c2ccc(Cl)cc2)nc2ccccc2c1=O,inactive: 2.42%
6,COc1ccc(-n2c3c(cc(-c4nc(-c5ccc(Cl)cc5)cs4)c2=O)C(=O)CC(C)(C)C3)cc1,inactive: 24.6%
7,Cc1ccc2scc(N3CCN(c4ccc(F)cc4)CC3)c(=O)c2c1,inactive: 2.87%
8,COc1ccc(NC(=O)c2sc3nc4n(c(=O)c3c2C)CCC4)cc1Cl,inactive: 6.52%
9,CCc1ccc(CNC(=O)c2cc(-c3ccc(Cl)s3)nc3ccccc23)cc1,inactive: -3.45%
10,Cc1ccc(N(C)S(=O)(=O)c2nnc(NC(=O)C3CCCCC3)s2)cc1,inactive: -21.6%
11,Cc1ccc(CCNC(=O)c2ccc(CSCc3ccccc3Cl)o2)cc1,inactive: -10.4%
12,CCOc1ccc(NC(=O)Cn2c(=O)oc3cc(S(=O)(=O)N4CCCCCC4)ccc32)cc1,inactive: -19.8%
13,O=C(Cc1ccc(NC(=O)N2CCSc3ncccc32)cc1)NCCc1ccccc1,inactive: 5.86%
14,COC(=O)c1cc(-c2ccc(OC)c(OC)c2)c2c(=O)[nH]c(=O)n(C)c2n1,inactive: 11%
15,CCC(=O)N1CCc2cc(S(=O)(=O)NC(CC(C)C)C(=O)NCc3ccc(F)cc3)ccc21 (stereo not drawn),inactive: -13%
16,Cc1ccc(S(=O)(=O)c2nc(-c3ccco3)oc2SCC(=O)Nc2ccc(F)cc2)cc1,inactive: 3.38%
17,O=C(CCn1c(=O)c2sccc2n(Cc2cccc(F)c2)c1=O)NCc1ccc2c(c1)OCO2,inactive: 8.16%
18,Cc1ccc(NC(=O)Cn2c(=O)n(Cc3nc(C)no3)c(=O)c3cc4c(cc32)OCO4)c(Cl)c1,inactive: 6.16%
19,Cc1cccc(C)c1NC(=O)Cn1c(=O)n(Cc2ccco2)c(=O)c2ccc(C(=O)NC3CCCC3)cc21,inactive: -25.2%
20,CCOc1ccc(CNC(=O)C2CCCN(S(=O)(=O)N(C)c3ccc(F)cc3)C2)cc1OC (stereo not drawn),inactive: 1.31%
21,COc1cccc(Cn2c(NCc3ccc(C)cc3)nc3c2c(=O)n(C)c(=O)n3C)c1,inactive: -5.96%
22,CC(=O)Nc1ccc(NS(=O)(=O)c2c(C)nc3sccn3c2=O)cc1,inactive: -1.25%
23,CCOC(=O)c1cnc2c(ccc3ccccc32)c1Nc1ccc(Cl)cc1,inactive: -4%
24,CC(=O)c1ccc(NC(=O)c2ccc(-c3nc(COc4ccc(C)cc4)c(C)o3)cc2)cc1,inactive: -17.7%
